Laboratory results published in PubChem BioAssay AID1468 (National Center for Advancing Translational Sciences (NCATS), 2008).
Screen size: about 280,000 compounds; about 1,100 (0.39%) were called active. This list was built around the results that the source calls inconclusive (neither active nor inactive); the mix of calls is not that of the screen. Calls come from the whole dose curve; as a rule, active = well fitted inhibition curve with a large enough effect; inconclusive = small, poorly fitted or top-dose-only effect, or effect the other way; inactive = flat fitted curve, though single readings scatter. Potencies of inconclusive entries are left out as doubtful fits.

The compounds below were run against Microtubule-associated protein tau (Homo sapiens) (UniProt P10636) (assay: qHTS for Inhibitors of Tau Fibril Formation, Fluorescence Polarization). Conditions: K18 P301L tau heparin fibrillization, Alexa594 FP, 6 h; series mostly up to 57.7 µM; activity, negative = inhibition: at the top concentration.
Sequence of UniProt P10636 (P10636 whole entry, looked up): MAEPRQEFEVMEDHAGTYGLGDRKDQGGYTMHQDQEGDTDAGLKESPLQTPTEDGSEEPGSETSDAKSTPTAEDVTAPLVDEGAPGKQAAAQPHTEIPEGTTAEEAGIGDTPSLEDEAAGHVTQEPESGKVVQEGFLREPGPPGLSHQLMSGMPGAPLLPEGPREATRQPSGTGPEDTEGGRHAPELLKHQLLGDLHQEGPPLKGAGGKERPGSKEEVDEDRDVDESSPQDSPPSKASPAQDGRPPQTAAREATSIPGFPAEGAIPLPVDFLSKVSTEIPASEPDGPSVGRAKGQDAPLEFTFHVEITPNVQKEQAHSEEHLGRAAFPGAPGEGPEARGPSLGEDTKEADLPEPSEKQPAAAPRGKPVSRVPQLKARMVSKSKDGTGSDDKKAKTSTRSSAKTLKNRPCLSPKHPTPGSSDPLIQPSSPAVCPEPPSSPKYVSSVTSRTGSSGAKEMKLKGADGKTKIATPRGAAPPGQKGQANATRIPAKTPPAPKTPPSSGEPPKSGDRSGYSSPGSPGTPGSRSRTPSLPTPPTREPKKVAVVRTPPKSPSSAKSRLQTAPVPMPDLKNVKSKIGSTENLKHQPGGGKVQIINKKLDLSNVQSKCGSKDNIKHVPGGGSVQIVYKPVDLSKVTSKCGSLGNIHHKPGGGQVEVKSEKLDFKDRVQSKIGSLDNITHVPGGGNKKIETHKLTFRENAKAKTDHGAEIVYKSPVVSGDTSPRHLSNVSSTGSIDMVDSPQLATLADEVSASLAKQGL
Summary of the method: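 Steps: dispense K18 P301L tau (15 uM plus 0.24 uM Alexa 594 tracer, final) in pH 7 sodium acetate; add compound; add heparin (20 uM final); incubate 6 hr, 37 C; add ThT (30 uM final); after 1 hr ambient, read FP.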
% is set by controls: 0 for no effect and ±100 for the full control effect; potency is the fitted concentration of half-maximal effect; tags give direction and shape of the fitted curve.
Note: nearly all actives have a fitted effect of over 55% in size.

SMILES	activity, negative = inhibition	Potency
CCCCN(C)CCCNC(=O)/C=C1\Sc2ccccc2NC1=O	inactive: -6.16%	
COCCn1c(SCC(=O)N2CCCC2)nnc1C(C)C		inconclusive [inhibitor, single point]
N#CC1CC(c2ccccc2)Nc2cc(Cl)ccc2N1 (centres undefined)		inconclusive [inhibitor, single point]
Cc1cc(C)c2nc(C(F)(F)F)c(C#N)c(N)c2c1		inconclusive [inhibitor, full curve, poor fit]
COC(=O)c1ccc(NC(=O)COc2ccc(S(=O)(=O)NC(C)(C)C)cc2)cc1	inactive: -8.68%	
O=C(Nc1cc(C(=O)Nc2ccc(S(=O)(=O)O)cc2S(=O)(=O)O)cc(C(=O)Nc2ccc(S(=O)(=O)O)cc2S(=O)(=O)O)c1)Nc1cc(C(=O)Nc2ccc(S(=O)(=O)O)cc2S(=O)(=O)O)cc(C(=O)Nc2ccc(S(=O)(=O)O)cc2S(=O)(=O)O)c1		active: 14.1 µM
Cn1c(-c2ccccc2)cc2c3no[n+]([O-])c3ccc21	inactive: -19.7%	
O=C(Nc1nnc(S(=O)(=O)N2CCCCCC2)s1)c1ccccc1F	inactive: -4.11%	
CCOC(=O)C1CCN(c2cc(C)nc3c(-c4ccccc4OC)c(C)nn23)CC1	inactive: 1.81%	
Cc1cc(NC(=O)CSc2nc3c([nH]c4ccccc43)c(=O)n2-c2ccccc2F)no1		inconclusive [inhibitor, partial curve]
O=C(Nc1cccc(O)c1)c1ccccc1	inactive: 7.39%	
N#CCCN(C(=O)CSc1nc2nc(-c3cccs3)cc(C(F)(F)F)c2c(=O)[nH]1)c1ccccc1	inactive: -1.84%	
CCOc1ccc2[nH]c3c(NCCc4ccc(OC)c(OC)c4)ncnc3c2c1		inconclusive [activator, single point]
CCOC(=O)Cn1c(=O)c2c(nc(N3CCOCC3)n2Cc2ccccc2)n(C)c1=O	inactive: -8.12%	
Cc1ccc(C(=O)Nc2ccc(S(=O)(=O)N3CCc4ccccc43)cc2)o1		inconclusive [inhibitor, partial curve]
CCOc1ccc(S(=O)(=O)N(C)C)cc1-c1nc2c(C(C)(C)C)nn(C)c2c(=O)[nH]1		inconclusive [inhibitor, single point]
COc1ccc(C(=O)c2coc3c2C(=O)C(=O)c2ccccc2-3)cc1		inconclusive [inhibitor, full curve]
N[C@H](CS)C(=O)O		inconclusive [inhibitor, partial curve, poor fit]
Cn1cccc1/C=N/n1c(-c2ccc(C(C)(C)C)cc2)n[nH]c1=S	inactive: 6.42%	
COC(=O)c1noc(C)c1-c1ccnn1C(=O)c1ccc(Cl)cc1		inconclusive [inhibitor, partial curve]
Cc1cc(NC(=O)c2cc(-c3ccc(Br)cc3)on2)nn1Cc1ccc(Cl)cc1		inconclusive [inhibitor, single point]
CC1(C)Cc2nc3sc4c(SCC(=O)NCc5ccco5)ncnc4c3cc2CO1		inconclusive [inhibitor, single point]
COc1ccccc1CNc1nc2nc(C)c(Cl)c(=O)n2[nH]1	inactive: -0.0443%	

SMILES	activity, negative = inhibition	Potency
c1cncc(-c2nc(NCc3ccc4c(c3)OCO4)c3ccccc3n2)c1		inconclusive [inhibitor, single point]
Cc1ccc(C(=O)N2CCN(Cc3cc(=O)n4nc(-c5ccccc5)sc4n3)CC2)cc1	inactive: -0.799%	
O=C(Nc1ccccc1)c1ccc(Nc2c([N+](=O)[O-])cc([N+](=O)[O-])c3ccccc23)cc1		inconclusive [activator, partial curve]
O=C(Nc1ccc([N+](=O)[O-])cc1)C1CC1(c1ccccc1)c1ccccc1 (centres undefined)		inconclusive [inhibitor, partial curve, poor fit]
COc1ccc(OC)c(NC(=O)Cn2cnc3onc(-c4ccc(Cl)cc4)c3c2=O)c1		inconclusive [inhibitor, partial curve, poor fit]
COCc1cc(C)nc(Nc2ccc(C)c(C)c2)c1C#N		inconclusive [inhibitor, partial curve]
Cc1ccc(-n2ncc3c(Nc4cccc(C(F)(F)F)c4)ncnc32)cc1C		active: 10 µM
CCCn1c(-c2ccc(F)cc2)nc2c(NCCN3CCCCC3)nc(C)nc21	inactive: -5.17%	
CN(C)c1cc(-c2ccc([N+](=O)[O-])cc2)oc(=O)c1Cl		inconclusive [inhibitor, single point]
Cc1cc(NC(=S)N(Cc2ccc(Cl)cc2)Cc2ccc(C(=O)O)cc2)ccc1Cl	inactive: 5.77%	
COC(=O)c1ccc(C2Nc3cccc4cccc(c34)N2)cc1		inconclusive [inhibitor, partial curve]
Cn1cnnc1Sc1nc2c(c(=O)n(C)c(=O)n2C)n1Cc1ccccc1Cl	inactive: 4.89%	
CC(=O)N1CCN(C(=O)COc2ccc(Br)cc2)CC1	inactive: -2.46%	
COC1=C(N)C(=O)c2nc(-c3nc(C(=O)O)c(C)c(-c4ccc(OC)c(OC)c4O)c3N)ccc2C1=O		inconclusive [inhibitor, partial curve]
COc1cc(OC)c(C2CC(=O)N3CN(C)CSC3=C2C#N)cc1OC (centres undefined)		inconclusive [inhibitor, partial curve]
CCN(CC)CCCn1c(-c2ccccc2)nc2c(N3CCOCC3)nc(C)nc21		inconclusive [inhibitor, single point]
CCCCOCCCNC(=O)c1cccc(OC)c1		inconclusive [inhibitor, single point]
O=C(CCC(=O)OCc1ccc(Cl)cc1)Nc1ccccc1		inconclusive [inhibitor, single point]
O=c1[nH]c(=O)n([C@H]2C[C@H](O)[C@@H](CO)O2)cc1Br		inconclusive [inhibitor, single point]
CCOc1ccc(S(=O)(=O)n2ccc(C)n2)c2ccccc12		inconclusive [inhibitor, single point]
Cc1ccc(C(=O)CSc2nnc(-c3ccco3)n2Cc2ccccc2)cc1	inactive: -8.1%	
CCOC(=O)c1nn(-c2ccc(OC)cc2)c(=O)c2c(N)scc12		inconclusive [inhibitor, partial curve]
COc1ccc(OC)c2c1C(=O)c1ccccc1C2=O		inconclusive [inhibitor, single point]

SMILES	activity, negative = inhibition	Potency
Cc1nn(C)c(C)c1CCNC(=O)Nc1ccccc1C(F)(F)F		inconclusive [inhibitor, single point]
CCc1ccccc1N(C)C(=O)c1sc2nc3n(c(=O)c2c1C)CCCCC3		inconclusive [inhibitor, partial curve]
COc1ccc(C(=O)CCC(=O)Nc2ccc(C)c(Cl)c2)cc1		inconclusive [inhibitor, single point]
CCOC(=O)c1ccc(NC(=S)NCCc2ccc(F)cc2)cc1		active: 28.2 µM
CCN(CC)C(=S)NC(=O)c1ccc(OC)c(Br)c1	inactive: -1.83%	
COc1ccc(Nc2nc(-c3ccccc3)c3ccccc3n2)cc1		inconclusive [activator, full curve]
Cc1ccc(SCC(=O)Nc2ccc3oc(-c4ccccc4F)nc3c2)cc1		inconclusive [inhibitor, single point]
Cc1occc1C(=O)NNC(=O)c1nn(C)c(=O)c2ccccc12		inconclusive [inhibitor, single point]
Cc1cc(C)c(S(=O)(=O)NCC(c2ccco2)S(=O)(=O)c2cccs2)c(C)c1 (centres undefined)	inactive: -7.22%	
Cc1cc(Br)cc2c1N(Cc1ccccc1OC(C)C)C(=O)C2=O		inconclusive [inhibitor, single point]
O=C(Nc1cccc2nsnc12)C1CC(=O)N(c2ccccc2)C1 (centres undefined)		inconclusive [inhibitor, single point]
CCN(CC)c1ccc(C=Nc2ccc(N(C)C)cc2)c(O)c1		inconclusive [inhibitor, partial curve]
CC#CCN1c2ccccc2[C@]23C[C@@H](C(=O)OC)N(S(=O)(=O)c4ccc5c(c4)OCCN5C)C2=NC(C(=O)OC)=C(C(=O)OC)[C@H]13	inactive: 0.179% [at 11.6 µM]	
O=c1nc2sc3ccccc3n2c(=O)n1-c1ccc(Cl)cc1		inconclusive [inhibitor, single point]
O=C(COC(=O)c1cccc(NC(=O)c2ccc(Br)cc2)c1)c1ccc(Cl)cc1		inconclusive [inhibitor, full curve, poor fit]
CC(C)(C)c1ccc(OCCOCCn2c(-c3ccc(Cl)cc3)nc3ccccc3c2=O)cc1		inconclusive [inhibitor, full curve, poor fit]
CC(C)(C)CN1CCNC(=O)C1CC(=O)NCc1cccc(-n2cccn2)c1 (centres undefined)	inactive: 5.88%	
C=CCn1c(COc2cccc(C)c2)nnc1SCC(=O)NC(=O)NCc1ccco1	inactive: 0.999%	
CCC(Oc1ccccc1)C(=O)NC1CCSC1=O (centres undefined)	inactive: -6.33%	
C=CCOc1nc(N2CCCC2)nc(N2CCCC2)n1		inconclusive [inhibitor, single point]
Cc1ccc(N=C2NC(=O)/C(=C/c3cccnc3)S2)cc1C		inconclusive [inhibitor, full curve, poor fit]
CCCCCn1c(CCCNC(=O)c2cccc(C)c2)nc2ccccc21	inactive: -1.29%	
COc1ccc(/C=c2\sc3nc(-c4ccccc4)c(-c4ccccc4)n3c2=O)cc1OC		inconclusive [inhibitor, partial curve]
